Changes are numbered by the printed parent chain. Some of the results follow.
T1: UNK ZnF1-3 (human, UniProt Q9C0B0 31-174)
T1 sequence: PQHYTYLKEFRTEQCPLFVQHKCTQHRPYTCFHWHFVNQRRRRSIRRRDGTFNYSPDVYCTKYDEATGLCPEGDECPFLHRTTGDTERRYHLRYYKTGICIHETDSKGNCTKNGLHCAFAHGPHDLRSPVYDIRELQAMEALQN

B1: 165947226_165947346_5844_CDS_ENSG00000153253_ENST00000283254|human|control|control (ssRNA)
RNA: GGGAGUUCUACAGUCCGACGAUCUUUAGAGAACUCUAUAAACUGGGUCGCAUCGGGAUCAAACUUUUCCCAAACCUCAUAGAACAUCUCAAAGUCAUCCUCACUCAGGGGCUCUGCACUUUCUUCAGUAGCAACACUGAAGUUCAACAGAGGAUUGAGCAUCA
B2: 148773136_148777573_1560_3pUTR_ENSG00000071794_ENST00000310053|human|control|control (ssRNA)
RNA: GGGAGUUCUACAGUCCGACGAUCUUGGUCUCUCCUCAACAUCAGUUUUCUUUGACCCCUCCACUGCACAAGCUCCCUUUUUCAACAUUUUCUUUUUUGUUGUAGGAACAGAUGAAGUUAAUGCACAUGCAAAUGCCACAUCUUCAACAGAGGAUUGAGCAUCA
B3: chr3:148802587:148802588:-_ENSG00000071794_ENST00000310053|hu_mus|hu_hu_hu_mus_False|48_98 (ssRNA)
RNA: GGGAGUUCUACAGUCCGACGAUCUCCAACAACUUGUCCUCUCAAACUUCCAAAUAAAACCAAAUCUUGCUCUUCAUCACUCGUUAGAAAGUCAUCUGGAGGAAUAAUGUCUUGGAAUUCAAAAUGUGGCAAGAAAGUUGAGUACAACAGAGGAUUGAGCAUCA
B4: chr19:5156467:5156468:-_ENSMUSG00000024855_ENSMUST00000025786|mus_hu|FALSE|FALSE (ssRNA)
RNA: GGGAGUUCUACAGUCCGACGAUCCUUUAUUUCUGCCACAGGCACAGAGACAUCCUUCACGUUGCUGUGUAGGCCAAGCACCAGUGCGCCUUCAUUAGGAUGCUGCAUCACCUCUGCCAUGUUGAUGAGUCCCACGGCCAAGGUCAACAGAGGAUUGAGCAUCA
B5: chr2:42509997:42509998:+_ENSG00000143924_ENST00000318522|hu_mus|hu_hu_hu_mus_True|38_48 (ssRNA)
RNA: GGGAGUUCUACAGUCCGACGAUCUCGCUGAGUCCUCUCCUCAUAAUUAAACAGGACUACCACUGAGGCGAUAAAAUAAACUAUCUCCCCGGUCGGAAGAAGGUAAACAUUCGCUCUACAGUCCUUUCCUCGAUAACCGUAUACCAACAGAGGAUUGAGCAUCA
B6: chr3:10015032:10015033:+_ENSMUSG00000027533_ENSMUST00000029046|mus_mus|mus_mus_mus_hu_True|1_1 (ssRNA)
RNA: GGGAGUUCUACAGUCCGACGAUCGUUUUUACCAUCACAAGUGAUGAUACAAUCUGGCUUGGCCAUUGCGCCCAUUUUUCGCAAAGCUAUUCCCACUCCUAGCUCCUUCAUGUAUUCAUCAAAGCCUUUGCUGUCCAUCAGGCGCAACAGAGGAUUGAGCAUCA
B7: chrX:16870723:16870724:-_ENSG00000102054_ENST00000404022|hu_hu|motif|central (ssRNA)
RNA: GGGAGUUCUACAGUCCGACGAUCUUUAUGAGAUUCGAAGGUAUGGAGUUUUAAUUUUAAGUUACGCAGAUCCCAUAAAGCGGCGGUCUUAUCCGCAGAGCCGGUGGCUAGAAUAAAUUCGCUGUAGGGAUUGAAUGAGAGGCACAACAGAGGAUUGAGCAUCA
B8: 88442248_88443343_1740_CDS_ENSMUSG00000028059_ENSMUST00000029694|mouse|control|control (ssRNA)
RNA: GGGAGUUCUACAGUCCGACGAUCCAUCUCAGGCGGUCCAGAACUAAUCAGAAACAUCCCUUUCGCCUGGUUGGCUAUGUCUCUUACGAUGAGGUUCUGCAAGGACACCACUGAGGGCUUGUCCAGAGACGUGAAAAUGUAUUUCAACAGAGGAUUGAGCAUCA
B9: chr2:42509997:42509998:+_ENSG00000143924_ENST00000318522|hu_mus|hu_hu_hu_mus_True|1_48 (ssRNA)
RNA: B5 RNA with A99C, A105U, G138A, A142G
B10: 37435025_37435145_6650_3pUTR_ENSMUSG00000026915_ENSMUST00000028279|mouse|control|control (ssRNA)
RNA: GGGAGUUCUACAGUCCGACGAUCUGAAUUAAUAACUUUUGCCACUGUUAAUACACUAUCUUCCAAAGUAGGGUAUUUAUUUACAACAAGGCCAAUUCCAUCAGGAAUUCCAUCAGAAAACUUAAGAUACUUGCACUGAUCAUACAACAGAGGAUUGAGCAUCA
B11: chr7:137662931:137662932:-_ENSMUSG00000030850_ENSMUST00000033139|mus_hu|motif|central (ssRNA)
RNA: GGGAGUUCUACAGUCCGACGAUCAGCGGCUGCCCGACUCGUUCUUGCAGUAGCCGCAGCGGUAGAAGUCCUCGCGGGGGAAAUAGUCCACGACGCUGGGCGAACCCCCCGCCCAGAAAGCCAUGGCCUCGGCCCCGCGAACGCCAACAGAGGAUUGAGCAUCA
B12: chr9:51896463:51896464:+_ENSMUSG00000032050_ENSMUST00000163153|mus_mus|FALSE|FALSE (ssRNA)
RNA: GGGAGUUCUACAGUCCGACGAUCCUUUCAACACUGUAACAACUGAUGUAGCAAUGAUAAUGUACACAAUGCAAAGAGAAAAAAAUAAAUCAGUAAAACUCCGAGGGAAGCCAAGUCCUUUAGCAAUAAGGACUAUCGCUGUGACAACAGAGGAUUGAGCAUCA
B13: chr14:72190480:72190481:+_ENSG00000197555_ENST00000381232|hu_hu|motif|central (ssRNA)
RNA: GGGAGUUCUACAGUCCGACGAUCAAAUCCCACGGAGUUUAUGGUUCCUUCGGGUUUUUUCCAUCCAAUCAGGUACUUGCGGGUAGCGCCCUGGCGAGGGUAAAAACUCCUAGGACCAGAGGAGGAGGAGGAAGAGGAGGAGAACAACAGAGGAUUGAGCAUCA
B14: 38068879_38068999_2573_3pUTR_ENSG00000156735_ENST00000287322|human|control|control (ssRNA)
RNA: GGGAGUUCUACAGUCCGACGAUCUUCUACUCACUGUGGCAUUUAAUGUUUCAUCUGUAACUCUCUAUCACAAUGCCCUCUAUAGAAGCAGCAAUAGUGAAAACAUAACUACACUUUGGGGAAAAAAAAAAAAAACAGGAAAAACAACAGAGGAUUGAGCAUCA
B15: chr1:137302511:137302512:-_ENSMUSG00000041879_ENSMUST00000161189|perfect_dup|FALSE|FALSE (ssRNA)
RNA: GGGAGUUCUACAGUCCGACGAUCUUAACGGUGCUUUUGAACUUGCUGUUCUCCAGUAGGGCAUGGACAAACUCAAAAAUGCUAAAGACGAGGUUCUCAAAGCCCAGGACUUCUCCAUCCGAAUCCACAGGAUCUUCCACUUCCCAACAGAGGAUUGAGCAUCA
B16: chr7:140404665:140404666:+_ENSG00000090266_ENST00000247866|hu_hu|hu_hu_hu_mus_False|88_88 (ssRNA)
RNA: GGGAGUUCUACAGUCCGACGAUCUGCUCCUACUCGUCCAGAGAGUUUACACCUUCAGUCCUCGUCAUCAGGAGGGAUUCCCAGUUCUUCAUCUGUCCACUGUGAAGGAUCUGGAUAUGAAAAGUGACCCAGCACAGCAUCCGACAACAGAGGAUUGAGCAUCA
B17: chr1:163112212:163112213:-_ENSG00000143248_ENST00000313961|hu_hu|hu_hu_hu_mus_False|8_58 (ssRNA)
RNA: GGGAGUUCUACAGUCCGACGAUCUUUUAUUAUCAGUAAGAGUGAGUUACAUACUAGGCAAAGUAUUGGAUACAAUAUUCUAAAGAUAAACACUAUUGGUCCAGAAUUUAAAACUUUAUGAGCGAAGGCUUACAAAUGGACUUACAACAGAGGAUUGAGCAUCA
B18: chr7:135612270:135612271:-_ENSG00000105887_ENST00000393085|hu_mus|hu_hu_hu_mus_False|88_88 (ssRNA)
RNA: GGGAGUUCUACAGUCCGACGAUCGUUUUUUUCUGAGAUGUUAAAUAUUCAGUGGAGGGAAAACAAAACUUAACCUUUUAUUAAUGCGUGUUGUACCAAAAGCAGACAUUUUAGCUUCAUUUAUUCAAAAAUAUUAACAUUAAGCAACAGAGGAUUGAGCAUCA
B19: chrX:71549400:71549401:+_ENSMUSG00000019087_ENSMUST00000019231|mus_hu|mus_mus_mus_hu_False|98_108 (ssRNA)
RNA: GGGAGUUCUACAGUCCGACGAUCGCAAGGAAGAGGACAAACCUUUCCAGUCCAGUGCGCUGCAGGGUGGGAAAGCAACAACACGGACACCGUCCCACCCUCAACCCCCCCACUGGCACAGGGUCACACAAUCUGGGUCAAAGACAACAGAGGAUUGAGCAUCA
B20: chrX:12253581:12253582:-_ENSMUSG00000064127_ENSMUST00000096495|mus_hu|FALSE|FALSE (ssRNA)
RNA: GGGAGUUCUACAGUCCGACGAUCUUAAAAAAGUCCCUGACUGACUAGGAAAGACAGCACAGUGCUCCAAAAAGAAACCCUGCAGAGAUGUAUUAAUACCAAAAACUCCAUUUGACCCUGGACAGGCCCAGGAUUCGGGAUUCUCAACAGAGGAUUGAGCAUCA
B21: chr18:52893488:52893489:-_ENSG00000196628_ENST00000354452|hu_hu|hu_hu_hu_mus_True|8_38 (ssRNA)
RNA: GGGAGUUCUACAGUCCGACGAUCUAUUUAGACCAUUUCCGCGGAGUUAUGGCAUUUACUCAGUGCUGAUAGGUGGAAAAACUACUUCAACAGGGAUUUUUUUUUUUCUUAAUACAUGCCAAGAUUGGUGUGGCUGUAAAACAGCAACAGAGGAUUGAGCAUCA
B22: chr6:114281168:114281169:-_ENSG00000196591_ENST00000368632|hu_hu|hu_hu_hu_mus_True|18_18 (ssRNA)
RNA: GGGAGUUCUACAGUCCGACGAUCUUCCAUUUUUCGGUAUAAACCAUAAUUUAGCAGCAAGUUAUGAGUCAUCCGGAUUCUAUGAGGCUUCAUGGGAUGACCCUGGCCAUAAUAAUAAUUUCCAAUAUCACCAUCAUAGUAGUACAACAGAGGAUUGAGCAUCA

Biological target: T1, UNK ZnF1-3
Test: nsRBNS (natural sequence RNA bind-n-seq); RBNS binding buffer (assumed for nsRBNS): 25 mM Tris pH 7.5, 150 mM KCl, 3 mM MgCl2, 0.01% Triton X-100, 500 ug/ml BSA, 20 U/ml SUPERase-In, 4 C; UNK is unkempt and MSI1 is Musashi-1; names of the RNAs are library labels; protein concentration not given here; high values mean tight binding

Binder | binding signal
B1 | 0.705 enrichment R
B2 | 0.791 enrichment R
B3 | 1.25 enrichment R
B4 | 0.837 enrichment R
B5 | 1.05 enrichment R
B6 | 0.696 enrichment R
B7 | 1.61 enrichment R
B8 | 1.07 enrichment R
B9 | 1.04 enrichment R
B10 | 0.714 enrichment R
B11 | 0.542 enrichment R
B12 | 1.45 enrichment R
B13 | 1.92 enrichment R
B14 | 2.22 enrichment R
B15 | 1.01 enrichment R
B16 | 1.27 enrichment R
B17 | 0.966 enrichment R
B18 | 2.62 enrichment R
B19 | 1.08 enrichment R
B20 | 1.33 enrichment R
B21 | 1.07 enrichment R
B22 | 0.871 enrichment R

Source: article PMC12136788
